Results on 85 compounds are retold here after PubChem BioAssay AID1346428 (National Center for Advancing Translational Sciences (NCATS), 2018).

The structures appear in SMILES notation. Out of some 48,000 compounds screened, about 1,200 (2.5%) were called active. Another 2% or so got no clear call; they are omitted.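 Rule for the calls: active = activation of at least 60% and not above a set upper limit (about 1 call in 100 departs from these limits); inconclusive = activation of 40% to 60%, or above that upper limit; inactive = activation under 40%.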 The list shows a part of the results.

Chain of UniProt O75388 (O75388 whole entry, looked up, the tested form may be a part): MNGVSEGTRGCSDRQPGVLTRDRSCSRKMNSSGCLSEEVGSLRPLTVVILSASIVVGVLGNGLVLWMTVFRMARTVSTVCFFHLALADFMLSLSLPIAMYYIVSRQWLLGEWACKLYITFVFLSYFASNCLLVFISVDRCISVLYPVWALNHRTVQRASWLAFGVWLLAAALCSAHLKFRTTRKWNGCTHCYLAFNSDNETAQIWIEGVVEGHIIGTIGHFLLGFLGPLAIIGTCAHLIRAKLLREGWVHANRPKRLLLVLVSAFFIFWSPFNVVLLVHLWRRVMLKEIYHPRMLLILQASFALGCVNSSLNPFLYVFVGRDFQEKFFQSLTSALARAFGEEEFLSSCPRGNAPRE

In this experiment the target is Probable G-protein coupled receptor 32 (Homo sapiens) (UniProt O75388). Put plainly: qHTS for Agonists of Human Resolvin D1 Receptor DRV1. Note: 0% is about no effect. Conditions: CHO-K1 GPR32 beta-arrestin PathHunter luminescence, 90 min; at 76.9 µM; hits give high values; zero percent set by DMSO-only wells. Put shortly:
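GPR32 activation in stably transfected CHO-K1 cells, detected as beta-arrestin recruitment by enzyme-fragment complementation. Compound exposure: 90 min, 37 °C.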
As for `Cc1cccc(NC(=O)CSc2nnc(NC(=O)Nc3ccccc3)s2)c1C`, the activation was inactive: -4.41%. `COc1cccc(C2CC(=O)Nc3c2ccc(C)c3C)c1OC` (stereo not given): the activation is inactive: 30.4%. For `CCOc1ccccc1CNC(=O)c1ccc(CS(=O)Cc2cccc(Cl)c2)o1` (stereo not given), the activation is inactive: -19.6%.

For `CCOCCOC(=O)/C=C/c1ccc(OC)cc1`, the activation is inactive: 0.142%. Regarding `CCCC(CCC)(C(=O)OCC)C(=O)OCC`, the activation was inactive: -1.55%.

Regarding `Cc1ccccc1CNC(=O)C(=O)NCC(c1ccco1)S(=O)(=O)c1cccs1` (stereo not given), the activation was inactive: -0.721%.

Turning to `NC[C@H]1O[C@H](O[C@H]2[C@H](O)[C@@H](O[C@H]3O[C@H](CO)[C@@H](O)[C@H](N)[C@H]3O)[C@H](N)C[C@@H]2N)[C@H](N)[C@@H](O)[C@@H]1O`, the activation was inactive: -0.321%.

Regarding `Cc1ccc(NC(=O)CSc2ncc(-c3ccccc3)[nH]2)cc1`, the activation was inactive: -10.8%. In the case of `COc1cccc(NC(=O)CSc2nnc(-c3cccc(OC)c3)o2)c1`, the activation was active: 77.8%. On to `CCCCNC(=O)CSc1nc2nc(C)c(Cc3c(F)cccc3Cl)c(C)n2n1`, for which the activation is inactive: 18.9%.

Consider `CCC(=O)N1CCc2cc(CNC(=O)c3ccccc3C)ccc21`, for which the activation was inactive: -13.6%.

Take `CCOC(=O)c1c(C)[nH]c(C)c1S(=O)(=O)N1CCCC(C(=O)Nc2cc(C)ccc2C)C1` (stereo not given): the activation was inactive: 4.24%. In the case of `O=C(Nc1ccc2nc(SCC(=O)N3CCc4ccccc43)sc2c1)c1ccccc1`, the activation was inactive: -11.2%. As to `Cc1ccc2sc(-c3ccc(N)cc3)nc2c1`, the activation was inactive: -19.9%. On to `CCc1ccc(-n2c(=O)c3sc4ccccc4c3n(CC(=O)N(CC)Cc3ccccc3)c2=O)cc1`, for which the activation is inactive: 2.92%. As to `CCNC(=O)NCc1cccc(Cl)c1`, the activation was inactive: -19.9%. In the case of `Cc1ccc(-c2nnc(Nc3ccccc3O)c3ccccc23)cc1` it was inactive: 5.76%.

Turning to `Cc1ccc(Cl)cc1N1CCN(C(=O)c2cnn(C)c2C2CCN(C(=O)OC(C)(C)C)CC2)CC1`, the activation was inactive: 4.68%. `O=C(Nc1cc2c(cc1C(=O)c1ccccc1Br)OCCO2)c1ccccc1`: the activation was inactive: -14.1%. Turning to `O=C(NC1CC(=O)N(c2cccc(F)c2)C1)c1ccc2c(c1)OCO2` (stereo not given), the activation was inactive: -4.01%. For the compound `O=C(C1CCC(Cn2c(=O)c3sccc3n(Cc3ccccc3)c2=O)CC1)N1CCOCC1` (stereo not given), the activation is inactive: -5.24%. As to `Cc1ccc(OCC(=O)Nc2ccccc2C(=O)OCc2cc(=O)n3ccsc3n2)cc1`, the activation is inactive: -13.9%.

As for `CC(=O)c1ccc(NC(=O)COc2ccccc2-c2nc(-c3ccc(C)cc3)no2)cc1`, the activation is inactive: -0.896%. Consider `O=C(Nc1ccccc1F)c1ccc(Cn2nc(N3CCN(c4ccccc4)CC3)ccc2=O)o1`, for which the activation is active: 90.1%. In the case of `COc1cc(OC)c(NC(=O)N2CCc3c([nH]c4ccccc34)C2c2ccccc2F)cc1Cl` (stereo not given) it was inactive: -19.8%. In the case of `Cc1cc(C)c(NC(=O)CN2C(=O)c3cccnc3Sc3ccccc32)c(C)c1` it was inactive: -8.59%; in that of `O=C(CCC(=O)N1CC2CCCN2c2ccccc21)NCc1ccc(F)cc1` (stereo not given), inactive: -38.4%; in that of `CCc1cc(C(=O)Nc2c(C)nn(Cc3ccccc3Cl)c2C)no1`, inactive: 25.1%. On to `CC(=O)O[C@]1(C(C)=O)CC[C@H]2[C@@H]3C=C(C)C4=CC(=O)CC[C@]4(C)[C@H]3CC[C@@]21C`, for which the activation is inactive: -36%.

Regarding `CC(C)CC(C(=O)NCC1CCN(Cc2ccc(F)cc2)CC1)N1Cc2ccccc2C1=O` (stereo not given), the activation was inactive: -16.8%.

Consider `COc1ccc(NC(=O)C2CCC(CNS(=O)(=O)c3ccc(Br)s3)CC2)c(OC)c1` (stereo not given), for which the activation was inactive: 33.3%. Take `CC(=O)c1ccc(NC(=O)CCc2c(C)nn(-c3ccc4nnc(C)n4n3)c2C)cc1`: the activation is inactive: -0.69%. In the case of `CCc1ccc(NC(=O)Cn2cc(S(=O)(=O)c3ccc(F)cc3)c(=O)c3cc(OC)ccc32)cc1` it was inactive: -13.1%; in that of `COc1cc(NC(=O)N2CCC(CN3CCCCCC3)CC2)cc(OC)c1OC`, inactive: -6%. In the case of `Cc1ccccc1C(=O)N1c2ncnn2C2(CCCCC2)[C@@H]2CCCC[C@@H]21` it was inactive: -12.5%; in that of `CCc1nc(-c2ccc(C)c(S(=O)(=O)N3CCN(c4ccc(C(C)=O)cc4)CC3)c2)no1`, inactive: -4.4%; in that of `O=C(CSc1nc(-c2ccccc2)nc2cc(=O)[nH]n12)Nc1ccccc1`, inactive: 6.01%. For `O=C(NCCn1cc(SCc2ccc(F)cc2)c2ccccc21)c1cccs1`, the activation is inactive: 34.3%. For `CCn1cc(C(=O)N2CCN(c3cc(Cl)ccc3C)CC2)c(=O)c2cc(S(=O)(=O)N3CCCCC3)ccc21`, the activation was inactive: -0.472%.

In the case of `Cc1ccccc1Cn1c(=O)n(CCC(=O)NCc2ccco2)c(=O)c2sccc21`, the activation is inactive: -17.4%. As for `COC(=O)C1=C(C)N(C(C)C)C(=O)C1(NC(=O)c1ccc(C(C)(C)C)cc1)C(F)(F)F` (stereo not given), the figure is inactive: -7.85%. For `CC(C)Nc1nc2c(-c3cccc(Br)c3)nnn2c2ccccc12`, the activation is inactive: 32.9%. For the compound `CCOc1ccc(C(=O)Nc2ccc(-n3nncc3-c3ccc(OC)cc3)cc2)cc1`, the activation is inactive: -10.8%.

As for `Cc1ccc(NC(=O)CSc2nc(-c3ccco3)nc3cc(=O)[nH]n23)cc1`, the activation was inactive: -3.71%. Consider `CCCc1cc(=O)[nH]c(Nc2ccc(OCC)cc2)n1`, for which the activation was inactive: -4.36%. Regarding `Cn1nnnc1SCCNCc1ccc(Cl)c(Cl)c1`, the activation was inactive: -5.94%.

Regarding `COc1ccccc1NC(=O)C1=C(C)Nc2nc(-c3ccco3)nn2C1c1ccccc1F` (stereo not given), the activation was inactive: -14.8%.

As to `Cc1ccc(Cn2c(C)c3cnn(CC(=O)NCCc4ccc(Cl)cc4)c(=O)c3c2C)cc1`, the activation was inactive: -27.2%.

As to `Cc1cccc(S(=O)(=O)c2cn(C)c3cc(N4CCN(c5ccccc5)CC4)c(F)cc3c2=O)c1`, the activation is inactive: -0.563%. `COc1cccc(CCNC(=O)c2cnc3sc(N4CCOCC4)nn3c2=O)c1`: the activation is inactive: -9.91%. Turning to `CNC(=O)c1cnc2sc(N3CCCCCC3)nn2c1=O`, the activation was inactive: 3.27%. With `CCOc1ccc(N(CC)C(=O)CCc2nc(-c3ccccc3F)no2)cc1`, the activation was inactive: -20.4%. As for `COc1ccc(C(=O)Nc2nc3ccccc3n2CCOc2ccc(Cl)cc2)cc1`, the figure is inactive: -25.5%; as for `O=C(NCCc1ccccc1)c1ccc(Cn2c(SCc3ccccc3)nc3cccnc32)cc1`, inactive: -6.98%. Turning to `Cc1cccn2c(=O)cc(CSc3nnc(NC(=O)c4ccc(F)cc4)s3)nc12`, the activation is inactive: -9.59%. Regarding `CCC(Sc1nnc(-c2ccc(OC)c(OC)c2)c(-c2ccc(OC)c(OC)c2)n1)C(=O)NC1CCCC1` (stereo not given), the activation was inactive: -38.9%. On to `COc1cccc(NC(=O)Cn2nc(C)c3c(C)n(-c4ccccc4)nc3c2=O)c1`, for which the activation was inactive: -16.6%. Take `CCCOc1ccc(Oc2nc(NCC(C)C)nc(N(C)C)n2)nn1`: the activation is inactive: -10.1%. As for `CCc1ccc(NC(=O)C(Cc2ccccc2)NS(=O)(=O)c2ccc3c(c2)c(=O)n(C)c(=O)n3C)cc1` (stereo not given), the figure is inactive: -1.99%.

Regarding `Cc1nc(-n2nc(C)c(CCC(C)C)c2C)sc1C(=O)Nc1cccc(Cl)c1`, the activation is inactive: -3.23%. For the compound `CCC(C(=O)Nc1ccc(C)c(Cl)c1)n1c(=O)c(-c2ccccc2NC(C)=O)nc2ccccc21` (stereo not given), the activation was inactive: -14.5%.

Regarding `O=C1C(O)=C(O)C(=O)C(O)=C1O`, the activation was inactive: 6.17%. For the compound `Clc1ccc(NCc2nc3ccccc3n2CCOc2ccccc2)cc1`, the activation is inactive: 8.47%. `COc1ccc(Cl)cc1NC(=O)Cn1c(=O)c2ccccc2n2nncc12`: the activation is inactive: -3.35%. Consider `Cc1cccc(C)c1NC(=O)c1sc(-n2nc(C)c(Cc3ccc4c(c3)OCO4)c2C)nc1C`, for which the activation was inactive: -0.313%. In the case of `Cc1ccc(NC(=O)Cn2nc3c(cc2=O)CCCC3)cc1Cl`, the activation was inactive: -3.74%. For the compound `Cc1nccn1CC1CCc2c(c3ccccc3n2C)C1=O` (stereo not given), the activation is inactive: 28.1%. On to `NC(=O)c1cc[n+](CC2=C(C(=O)[O-])N3C(=O)[C@@H](NC(=O)Cc4cccs4)[C@H]3SC2)cc1`, for which the activation is inactive: 2.42%.

With `CCN(C(=O)CSc1nc2ccccc2nc1Cc1ccc(F)cc1)c1cccc(C)c1`, the activation is inactive: -37.7%. As for `Cc1cc(C)cc(NC(=O)c2c(C)oc3nc(C)nc(N4CCCC4)c23)c1`, the activation was inactive: -17.4%. As for `CC(C)CCn1c(=O)c2cccnc2n(CC(=O)Nc2ccccc2F)c1=O`, the activation was inactive: -6.07%. Turning to `COCCc1ccc(OCC2CO2)cc1` (stereo not given), the activation is inactive: -7.07%. Regarding `Cn1c2ccccc2c2cnn(CC(=O)Nc3ccccc3F)c(=O)c21`, the activation was inactive: -2.46%. Take `COc1cccc(Cn2c(-c3nonc3NC(C)=O)nc3ccccc32)c1`: the activation is inactive: -23.9%.

As to `COc1cccc(-c2noc(-c3cc(C(C)C)[nH]n3)n2)c1OC`, the activation is inactive: -0.52%. As for `CCOc1ccc(Nc2nn(-c3ccc(OC(F)(F)F)cc3)nc2C(C)=O)cc1`, the figure is inactive: -3.62%. Take `CCc1ccc(OCC(=O)Nc2ncn[nH]2)c(Br)c1`: the activation is inactive: 2.01%. As to `COc1ccccc1CNC(=O)CCNS(=O)(=O)c1ccc2c(c1)oc(=O)n2C`, the activation was inactive: -7.93%. For `Cc1cccc(NC(=O)c2sc3nc(-c4cc5ccc(O)cc5oc4=O)[nH]c(=O)c3c2C)c1`, the activation was inactive: 1.94%.

As to `O=C(COc1ccc(F)cc1)NCc1ccc2c(c1)CCN2C(=O)c1ccccc1`, the activation is inactive: -22.6%. In the case of `CNC(=O)c1ccc2c(c1)N(Cc1ccccc1Cl)C(=O)c1ccccc1S2` it was inactive: -15.3%; in that of `Clc1ccc(-c2noc(-c3cccnc3NCc3ccco3)n2)cc1`, inactive: 0.243%. As to `Cc1ccc(-n2nc(C)c3nc(CCC(=O)Nc4cccc(F)c4)c(=O)n(C)c32)cc1`, the activation was inactive: 4.98%. Take `Cc1cccc(CNC(=O)CCCN2C(=O)CCn3nc(-c4cccn4C)cc32)c1`: the activation was inactive: -6.88%.

For the compound `COc1ccc(N2CCN(Cc3nnc(-c4ccc5c(c4)OCO5)o3)CC2)cc1`, the activation is inactive: -17.6%.
